The values that follow come from the RNAGym collection of RNA variant scans (doi:10.1093/nar/gkz1192).

Read counts are not given, so values of variants with three or more changes are uncertain.

To fix the notation:
B1: CPEB3 Ribozyme (parent)
chain: UAACAGGGGGCCACAGCAGAAGCGUUCACGUCGCAGCCCCUGUCAGAUUCUGGUGAAUCUGCGAAUUCUGCUGUAUAUCUC

This series covers variants of B1. The series is described as follows: self-cleavage, relative activity (ratio to wild type); higher = more cleavage; in vitro, sequencing. The procedure, abridged:
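Relative activity was defined as the cleaved/total read fraction for a variant divided by the same fraction for the unmutated ribozyme. CPEB3 self-cleaving ribozyme libraries were made by rounds of error-prone PCR, barcoded, and transcribed in vitro with T7 RNA polymerase for 5 hours at 37°C, and cleavage ran through transcription plus a 15 min DNase I step before EDTA. Illumina sequencing of template-switched reverse transcripts gave the reads, and DNA sequencing mapped the barcodes. Averages come from three batches, using variants with at least 5 reads.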
Regarding A18C A47G C62U U67C, the self-cleavage was determined as 0.15.

For C17U U26A U31A C32U A57U U58C U60C, the self-cleavage came to 0.03.

Turning to A15U U60G U72A, the self-cleavage came out at 0.27.

A18C U31C U41A U49G: the self-cleavage amounted to 0.08.

With C17A U25C C79A, the self-cleavage came out at 0.06.

As for A15U C23U C44U U49A U60A, the self-cleavage was found to be 0.13.

In the case of G16A G22U U41A U72C, the self-cleavage was determined as 0.12.

For A18C A45G A64U U74A, the self-cleavage stood at 0.31.

On to A15U C39U A57U U66G, for which the self-cleavage is 0.15.

As to A15U U31C G42C A64G U66C, the self-cleavage was 0.12.

For the variant G16C A45G U60C G63A, the self-cleavage is 0.21.

A15U G53C G63A U72C U80C: the self-cleavage turned out to be 0.4.

A15U A35U U72C A75G: the self-cleavage came to 0.74.

In the case of G16A C23G U54C A56G G70A, the self-cleavage came to 0.06.

Regarding A15U C62U A65G, the self-cleavage is 0.23.

On to A18C A35G A56G U67C U72C U74A, for which the self-cleavage worked out at 0.17.

A18C U25A A47G U58C: the self-cleavage amounted to 0.25.

Consider G16A A35U U51C G52U U58C U80C, for which the self-cleavage amounted to 0.1.

Consider A18C U49A U54C A75U, for which the self-cleavage is 0.17.

Turning to A18C G22C G70A U80A, the self-cleavage is 0.05.

Consider C17A A21G U25C A28G U74A, for which the self-cleavage was 0.48.

Regarding G16C A20U U31A G42U U49C U74C, the self-cleavage was determined as 0.09.

For G16U C23U U26C U41C U72C, the self-cleavage was 0.08.

Take G16C A18U G46U U72C: the self-cleavage turned out to be 0.28.

Consider C17U G24C A28U U51A, for which the self-cleavage amounted to 0.12.

In the case of A15U U25G U26A G33A C38U A57U, the self-cleavage was 0.07.

As for A15U C37U U41C U48C, the self-cleavage came out at 0.4.

For A15U G55A A57G, the self-cleavage was 0.24.

Take A18C A28U U60A: the self-cleavage is 0.16.

Consider G16A U31A C38G U69A, for which the self-cleavage was 0.16.

In the case of A15U U67A U80C, the self-cleavage turned out to be 0.5.

On to A15U U67C U69A, for which the self-cleavage turned out to be 0.1.

In the case of A15U A64U A65G U72C, the self-cleavage turned out to be 0.23.

Regarding A18G A20G U41C U58C A65U U66C U72A, the self-cleavage was 0.27.

For G16A A21G U43A U72A, the self-cleavage amounted to 0.2.

For A18G A20G A28G A35U U41A A45U U67C, the self-cleavage worked out at 0.02.

As to A15U C38A U48C U69C, the self-cleavage is 0.05.

Consider G16A U31C U48A U54C U78C, for which the self-cleavage was 0.13.

In the case of G16C U41A A65U U80C, the self-cleavage turned out to be 0.14.

With A15U G33A U49A, the self-cleavage worked out at 0.27.

In the case of C17A A47G U54A A56G U66C, the self-cleavage was 0.08.

In the case of G16A C37U A56G A64U U74C, the self-cleavage stood at 0.15.

For the variant A18C U51C U67C G70C U80C, the self-cleavage was found to be 0.13.

A18C C23U A28U U41C A45G: the self-cleavage came out at 0.17.

With A18C A28G A47G A57G U66C U78C, the self-cleavage is 0.1.

As for A18G A20U U26C A28U C29U U31A U49C, the self-cleavage amounted to 0.05.

As to A15U U26C G70A U76C U78C, the self-cleavage came to 0.07.

As for A18C A20U U43C U48C G70A, the self-cleavage came out at 0.05.

With A15U U26C A56U, the self-cleavage was found to be 0.4.

In the case of A15U U43C A47U U60C U69C, the self-cleavage turned out to be 0.18.

For the variant A18C A20G U31C U72A, the self-cleavage amounted to 0.26.

C17G U31C U67C: the self-cleavage is 0.14.

Take G16U U25C U69C U72A U78C U80C: the self-cleavage was 0.

As for C17U U26A U80A, the self-cleavage is 0.62.

As for A15U U31A U51C A64G A75G U78C, the self-cleavage turned out to be 0.1.

Consider A15U A45U U49C U72C, for which the self-cleavage amounted to 0.08.

With A15U C34G C79U, the self-cleavage worked out at 0.33.

Consider G16A A35G A45U, for which the self-cleavage is 0.24.

Turning to A15U A56G U76G, the self-cleavage was 0.86.

G16A A21G C32A: the self-cleavage came to 0.25.

As to C17U U25C C29U U31G U41C U51A U66G, the self-cleavage is 0.05.

C17G A47G U51C U58C: the self-cleavage was 0.23.

As to C17A G63A U72C U78C, the self-cleavage amounted to 0.06.

For G16A A20G C27U U69A U76C, the self-cleavage turned out to be 0.02.

For G16A C50U A57G G70U U78A, the self-cleavage is 0.08.

With A18C A45U U49C U54G U74C, the self-cleavage stood at 0.04.

For G16A U49A A65G U67A, the self-cleavage worked out at 0.31.

In the case of C17G A47G A65G U69C, the self-cleavage stood at 0.25.

With A15U U48C A57G U69A U80C, the self-cleavage was determined as 0.38.

Regarding C17U U41A U54A, the self-cleavage was determined as 0.16.

Take C17A U43C U49C U54C A56U: the self-cleavage turned out to be 0.15.

For C17U A56G U80C, the self-cleavage is 0.91.

Regarding A18C A28G C40A U41C U43C U60C A65G, the self-cleavage was found to be 0.4.

With A15U C39U U67C U78A, the self-cleavage was found to be 0.21.

For the variant A15U U76C U80A, the self-cleavage amounted to 0.72.

On to A15U G16C U48C U58C U72A, for which the self-cleavage came out at 0.08.

Consider A18C U26C A56U A65G U80A, for which the self-cleavage came to 0.13.

On to A15U G30A U51C, for which the self-cleavage was 0.09.

For the variant A15U U54C A64U U78C, the self-cleavage is 0.14.

With A15U U25C C59U U69C U76A, the self-cleavage was 0.07.

Regarding A15U U26G A28G, the self-cleavage was 0.09.

In the case of A18C U31C A45G A64U U74C U76A, the self-cleavage was 0.39.

In the case of G16U C29U U41C U74C, the self-cleavage turned out to be 0.32.
